In this test the target is isolated recombinant JAK1 kinase domain (Homo sapiens (Human), UniProt P23458). The settings on record: read-out: JAK1 Ki; isolated recombinant JAK1 kinase domain, 25 μM ATP.
In general, Ki refers to the dissociation constant of the complex between target and ligand, obtained from inhibition or displacement. Regarding `CN(C(=O)c1ccc(Nc2nc3c(N4CCC(O)(c5ccc(Cl)cc5)CC4)cccn3n2)cc1)C1CCCNC1` (centres unmarked) [Example 1-202, 4-[[8-[4-(4-chlorophenyl)-4-hydroxy-1-piperidyl]-[1,2,4]triazolo[1,5-a]pyridin-2-yl]amino]-N-methyl-N-(3-piperidyl)benzamide], the inhibition constant Ki came out at 3.35 nM.

For `O=C(c1ccc(Nc2nc3c(N4CCC(O)(c5ccc(Cl)cc5)CC4)cccn3n2)cc1)N1CC2(CNC2)C1` [Example 1-203, [4-[[8-[4-(4-chlorophenyl)-4-hydroxy-1-piperidyl]-[1,2,4]triazolo[1,5-a]pyridin-2-yl]amino]phenyl]-(2,6-diazaspiro[3.3]heptan-2-yl)methanone], the Ki was found to be 1.48 nM.

For the molecule `O=C(c1ccc(Nc2nc3c(N4CCC(O)(c5ccc(Cl)cc5)CC4)cccn3n2)cc1)N1CCCNCC1` [Example 1-204, [4-[[8-[4-(4-chlorophenyl)-4-hydroxy-1-piperidyl]-[1,2,4]triazolo[1,5-a]pyridin-2-yl]amino]phenyl]-(1,4-diazepan-1-yl)methanone], the inhibition constant Ki was 4.08 nM.

As to `O=C(c1ccc(Nc2nc3c(N4CCC(O)(c5ccc(Cl)cc5)CC4)cccn3n2)cc1)N1CCC2(CNC2)C1` [Example 1-205, [4-[[8-[4-(4-chlorophenyl)-4-hydroxy-1-piperidyl]-[1,2,4]triazolo[1,5-a]pyridin-2-yl]amino]phenyl]-(2,6-diazaspiro[3.4]octan-6-yl)methanone], the Ki was 1.89 nM.

For the molecule `CNC1CCN(C(=O)c2ccc(Nc3nc4c(N5CCC(O)(c6ccc(Cl)cc6)CC5)cccn4n3)cc2)C1` (centres unmarked) [Example 1-206, [4-[[8-[4-(4-chlorophenyl)-4-hydroxy-1-piperidyl]-[1,2,4]triazolo[1,5-a]pyridin-2-yl]amino]phenyl]-[3-(methylamino)pyrrolidin-1-yl]methanone], the Ki was found to be 2.34 nM.

As for `O=C(c1ccc(Nc2nc3c(N4CCC(O)(c5ccc(Cl)cc5)CC4)cccn3n2)cc1)N1CCC2(CCNC2)C1` (centres unmarked) [Example 1-207, [4-[[8-[4-(4-chlorophenyl)-4-hydroxy-1-piperidyl]-[1,2,4]triazolo[1,5-a]pyridin-2-yl]amino]phenyl]-(2,7-diazaspiro[4.4]nonan-2-yl)methanone], the Ki is 1.97 nM.

Regarding `O=C(c1ccc(Nc2nc3c(N4CCC(O)(c5ccc(Cl)cc5)CC4)cccn3n2)cc1)N1CCCC12CCNC2` (centres unmarked) [Example 1-209, [4-[[8-[4-(4-chlorophenyl)-4-hydroxy-1-piperidyl]-[1,2,4]triazolo[1,5-a]pyridin-2-yl]amino]phenyl]-(1,7-diazaspiro[4.4]nonan-1-yl)methanone], the inhibitory constant (Ki) came out at 5.63 nM.

In the case of `O=C(c1ccc(Nc2nc3c(N4CCC(O)(c5ccc(Cl)cc5)CC4)cccn3n2)cc1)N1CC2(CCCNC2)C1` [Example 1-210, [4-[[8-[4-(4-chlorophenyl)-4-hydroxy-1-piperidyl]-[1,2,4]triazolo[1,5-a]pyridin-2-yl]amino]phenyl]-(2,8-diazaspiro[3.5]nonan-2-yl)methanone], the inhibitory constant (Ki) stood at 0.91 nM.

For `O=C(c1ccc(Nc2nc3c(N4CCC(O)(c5ccc(Cl)cc5)CC4)cccn3n2)cc1)N1CCC2(CCCCN2)C1` (centres unmarked) [Example 1-211, [4-[[8-[4-(4-chlorophenyl)-4-hydroxy-1-piperidyl]-[1,2,4]triazolo[1,5-a]pyridin-2-yl]amino]phenyl]-(2,6-diazaspiro[4.5]decan-2-yl)methanone], the Ki came to 2.19 nM.

For `O=C(c1ccc(Nc2nc3c(N4CCC(O)(c5ccc(Cl)cc5)CC4)cccn3n2)cc1)N1CCC2(CCCNC2)C1` (centres unmarked) [Example 1-212, [4-[[8-[4-(4-chlorophenyl)-4-hydroxy-1-piperidyl]-[1,2,4]triazolo[1,5-a]pyridin-2-yl]amino]phenyl]-(2,9-diazaspiro[4.5]decan-2-yl)methanone], the inhibitory constant (Ki) is 1.88 nM.

Regarding `O=C(c1ccc(Nc2nc3c(N4CCC(O)(c5ccc(Cl)cc5)CC4)cccn3n2)cc1)N1CCC2(CCNC2)CC1` [Example 1-213, [4-[[8-[4-(4-chlorophenyl)-4-hydroxy-1-piperidyl]-[1,2,4]triazolo[1,5-a]pyridin-2-yl]amino]phenyl]-(2,8-diazaspiro[4.5]decan-8-yl)methanone], the Ki is 2.8 nM.

`O=C(c1ccc(Nc2nc3c(N4CCC(O)(c5ccc(Cl)cc5)CC4)cccn3n2)cc1)N1CCC2(CCNCC2)C1` [Example 1-214, [4-[[8-[4-(4-chlorophenyl)-4-hydroxy-1-piperidyl]-[1,2,4]triazolo[1,5-a]pyridin-2-yl]amino]phenyl]-(2,8-diazaspiro[4.5]decan-2-yl)methanone]: the Ki turned out to be 2.53 nM.

Consider `O=C(c1ccc(Nc2nc3c(N4CCC(O)(c5ccc(Cl)cc5)CC4)cccn3n2)cc1)N1CCCC2(CCCNC2)C1` (centres unmarked) [Example 1-215, [4-[[8-[4-(4-chlorophenyl)-4-hydroxy-1-piperidyl]-[1,2,4]triazolo[1,5-a]pyridin-2-yl]amino]phenyl]-(2,8-diazaspiro[5.5]undecan-2-yl)methanone], for which the Ki was found to be 2.28 nM.

Turning to `O=C(c1ccc(Nc2nc3c(N4CCC(O)(c5ccc(Cl)cc5)CC4)cccn3n2)cc1)N1CCCC2(CCNCC2)C1` [Example 1-216, [4-[[8-[4-(4-chlorophenyl)-4-hydroxy-1-piperidyl]-[1,2,4]triazolo[1,5-a]pyridin-2-yl]amino]phenyl]-(2,9-diazaspiro[5.5]undecan-2-yl)methanone], the inhibitory constant (Ki) was found to be 2.34 nM.

For `O=C(c1ccc(Nc2nc3c(N4CCC(O)(c5ccc(Cl)cc5)CC4)cccn3n2)cc1)N1CCC2(CCCNC2)CC1` [Example 1-217, [4-[[8-[4-(4-chlorophenyl)-4-hydroxy-1-piperidyl]-[1,2,4]triazolo[1,5-a]pyridin-2-yl]amino]phenyl]-(2,9-diazaspiro[5.5]undecan-9-yl)methanone], the Ki was 2.3 nM.

Turning to `O=C(c1ccc(Nc2nc3c(N4CCC(O)(c5ccc(Cl)cc5)CC4)cccn3n2)cc1)N1CCC2(CCNCC2)CC1` [Example 1-218, [4-[[8-[4-(4-chlorophenyl)-4-hydroxy-1-piperidyl]-[1,2,4]triazolo[1,5-a]pyridin-2-yl]amino]phenyl]-(3,9-diazaspiro[5.5]undecan-3-yl)methanone], the inhibitory constant (Ki) was 1.92 nM.

With `O=C(c1ccc(Nc2nc3c(N4CCC(O)(c5ccc(Cl)cc5)CC4)cccn3n2)cc1)N1CCCC2(CCCCN2)C1` (centres unmarked) [Example 1-219, [4-[[8-[4-(4-chlorophenyl)-4-hydroxy-1-piperidyl]-[1,2,4]triazolo[1,5-a]pyridin-2-yl]amino]phenyl]-(1,8-diazaspiro[5.5]undecan-8-yl)methanone], the inhibition constant Ki stood at 2.6 nM.

As to `O=C(NCC1COC2(CCNCC2)C1)c1ccc(Nc2nc3c(N4CCC(O)(c5ccc(Cl)cc5)CC4)cccn3n2)cc1` (centres unmarked) [Example 1-220, 4-[[8-[4-(4-chlorophenyl)-4-hydroxy-1-piperidyl]-[1,2,4]triazolo[1,5-a]pyridin-2-yl]amino]-N-(1-oxa-8-azaspiro[4.5]decan-3-ylmethyl)benzamide], the Ki stood at 1.31 nM.

In the case of `O=C(NC1COC2(CCNCC2)C1)c1ccc(Nc2nc3c(N4CCC(O)(c5ccc(Cl)cc5)CC4)cccn3n2)cc1` (centres unmarked) [Example 1-221, 4-[[8-[4-(4-chlorophenyl)-4-hydroxy-1-piperidyl]-[1,2,4]triazolo[1,5-a]pyridin-2-yl]amino]-N-(1-oxa-8-azaspiro[4.5]decan-3-yl)benzamide], the inhibition constant (Ki) came to 1.17 nM.

For the molecule `O=C(NCC1CCC2(CCNCC2)O1)c1ccc(Nc2nc3c(N4CCC(O)(c5ccc(Cl)cc5)CC4)cccn3n2)cc1` (centres unmarked) [Example 1-222, 4-[[8-[4-(4-chlorophenyl)-4-hydroxy-1-piperidyl]-[1,2,4]triazolo[1,5-a]pyridin-2-yl]amino]-N-(1-oxa-8-azaspiro[4.5]decan-2-ylmethyl)benzamide], the Ki amounted to 2.12 nM.

As for `O=C(c1ccc(Nc2nc3c(N4CCC(O)(c5ccc(Cl)cc5)CC4)cccn3n2)cc1)N1CCCC2(CCCN2)CC1` (centres unmarked) [Example 1-223, [4-[[8-[4-(4-chlorophenyl)-4-hydroxy-1-piperidyl]-[1,2,4]triazolo[1,5-a]pyridin-2-yl]amino]phenyl]-(1,9-diazaspiro[4.6]undecan-9-yl)methanone], the inhibition constant Ki came out at 3.54 nM.

`O=C(c1ccc(Nc2nc3c(N4CCC(O)(c5ccc(Cl)cc5)CC4)cccn3n2)cc1)N1CC2(CCNC2)C1` [Example 1-224, [4-[[8-[4-(4-chlorophenyl)-4-hydroxy-1-piperidyl]-[1,2,4]triazolo[1,5-a]pyridin-2-yl]amino]phenyl]-(2,7-diazaspiro[3.4]octan-2-yl)methanone]: the Ki turned out to be 0.95 nM.

Turning to `O=C(c1ccc(Nc2nc3c(N4CCC(O)(c5ccc(Cl)cc5)CC4)cccn3n2)cc1)N1CCOC2(CCCNC2)C1` (centres unmarked) [Example 1-225, [4-[[8-[4-(4-chlorophenyl)-4-hydroxy-1-piperidyl]-[1,2,4]triazolo[1,5-a]pyridin-2-yl]amino]phenyl]-(1-oxa-4,8-diazaspiro[5.5]undecan-4-yl)methanone], the Ki amounted to 1.79 nM.

In the case of `O=C(c1ccc(Nc2nc3c(N4CCC(O)(c5ccc(Cl)cc5)CC4)cccn3n2)cc1)N1CCC2(CCCN2)CC1` [Example 1-226, [4-[[8-[4-(4-chlorophenyl)-4-hydroxy-1-piperidyl]-[1,2,4]triazolo[1,5-a]pyridin-2-yl]amino]phenyl]-(1,8-diazaspiro[4.5]decan-8-yl)methanone], the inhibitory constant (Ki) turned out to be 1.81 nM.

Consider `O=C(c1ccc(Nc2nc3c(N4CCC(O)(c5ccc(Cl)cc5)CC4)cccn3n2)cc1)N1CCCC12CCNCC2` [Example 1-227, [4-[[8-[4-(4-chlorophenyl)-4-hydroxy-1-piperidyl]-[1,2,4]triazolo[1,5-a]pyridin-2-yl]amino]phenyl]-(1,8-diazaspiro[4.5]decan-1-yl)methanone], for which the Ki amounted to 2.85 nM.

Turning to `O=C(c1ccc(Nc2nc3c(N4CCC(O)(c5ccc(Cl)cc5)CC4)cccn3n2)cc1)N1CCCC2(CNCCO2)C1` (centres unmarked) [Example 1-229, [4-[[8-[4-(4-chlorophenyl)-4-hydroxy-1-piperidyl]-[1,2,4]triazolo[1,5-a]pyridin-2-yl]amino]phenyl]-(1-oxa-4,8-diazaspiro[5.5]undecan-8-yl)methanone], the inhibition constant (Ki) is 2.94 nM.

Values taken from US9873709B2 (priority 2013, dated 2018).
